The shares of active, inactive and inconclusive entries below differ from those in the screen. Potencies beside an inconclusive call are fits to weak or partial responses and may not hold up. Calls of active or inactive are those of the source. The call rests on the fitted dose curve; in most records, active means well fitted inhibition curve with a large enough effect; inconclusive means small, poorly fitted or top-dose-only effect; inactive means no such curve, though single readings can be large or run the other way.
experiment: qHTS to identify inhibitors of the type 1 interferon - major histocompatibility complex class I in skeletal muscle: primary screen against the NCATS Mechanism Interrogation Plate v5.0 (MIPE) Libary (AID 1347411); settings: iHSKM cells + IFN-b, HiBiT-tagged MHC-I luminescence, 24 h; activity change, negative = inhibition: at 45.8 µM (top of the series); further: nearly all actives have a fitted effect of over 65% in size;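 on activity change, negative = inhibition: plate controls were vehicle for no effect and reference inhibitor for full effect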
Excerpt: Assay Submitter (PI): Travis B. Kinder Ph.D. & James Inglese Ph.D.
Assay Development and Screening Technology Laboratory (ADST)
National Center for Advancing Translational Sciences (NCATS), Rockville, MD
National Institute of Health (NIH), Bethesda, Maryland
Idiopathic inflammatory myopathies, collectively referred to as myositis, are a group of rare autoimmune diseases characterized by skeletal muscle inflammation, weakness, and usually accompanied by systemic pathologies of the skin, lungs, or vasculature. Current immunosuppressive therapies and glucocorticoids are often not curative and are accompanied by harsh side effects, especially in children with juvenile myositis. We initiated a drug repurposing and development program to identify more targeted, less toxic therapeutics to treat myositis. Although its cause is not known, muscle from a subset of patients have an abundance of the inflammatory type 1 interferon (IFN) and a down-stream product major histocompatibility complex class I (MHC class I), which are both thought to contribute to damage and weakness. We conducted quantitative high throughput screening on 6,576 compounds (4,679 unique) through a series of cell-based assays to identify those that inhibit the IFN-stimulated expression of MHC class I in muscle precursor cells (myoblasts). The compound identification and evaluation strategy utilized a primary screen with reporter-tagged MHC class I in genome-engineered myoblasts, ATP content counter screen for viability, HLA-ABC immunofluorescence secondary screen, and HLA-B RT-qPCR tertiary screen.
The primary screen utilized CRISPR/Cas9 genome-engineering of immortalized human myoblasts, C25cl48, where a pro-luminescent reporter HiBit was fused to the C-terminus of endogenous MHC class I allele HLA-B*08:01 (HLA-B HiBit myoblasts). HiBit is an 11 amino acid fragment of NanoLuc luminescent reporter (Promega Corporation), and when complexed to the larger LgBit fragment, the reconstituted enzyme produces light in the presence of furimazine substrate (Schwinn et al., 2018). Briefly, HLA-B HiBit myoblasts were plated into 1536-well plates, treated with 4.0 ng/ml human IFN-beta and 2,480 compounds from the NCATS Mechanism Interrogation Plate v5.0 (MIPE5.0) in an 11-point, 1:3 titration with a high final concentration of 46 uM. After 24 hrs of treatment, cells were assayed by Nano-Glo HiBiT Lytic Detection System (Promega) and luminescence measured by a ViewLux 1430 Ultra HTS (Perkin Elmer).
Schwinn MK, Machleidt T, Zimmerman K, Eggers CT, Dixon AS, Hurst R, Hall MP, Encell LP, Binkowski BF, Wood K V. 2018. CRISPR-Mediated Tagging of Endogenous Proteins with a Luminescent Peptide. ACS Chem Biol 13:467-474. doi:10.1021/acschembio.7b00549
PROTOCOL TABLE (as described by Inglese et al., 2007)
SEQUENCE No. (e.g., 1, 2, 3, etc.); […] (e.g., Cells, Incubation, Reagent, etc.); VALUE; DESCRIPTION
1a; Cells; 5 uL; Use a Multidrop Combi (Thermo Scientific) to seed 300 cells/well into 24 Greiner 1536 well white/solid bottom, high base, TC plates in 5 ul/well of iHSKM growth medium (GM) without dexamethasone into columns 1+2. Add metal lids with gas-exchange holes
1b; Cells; 5 uL; Use a Multidrop Combi (Thermo Scientific) to seed 300 cells/well into 24 Greiner 1536 well white/solid bottom, high base, TC plates in 5 ul/well of iHSKM GM without dexamethasone + 4 ng/ml IFN-b into columns 3 - 48. Add metal lids with gas-exchange holes
2; Incubate; 1 hr; Incubate at 37 C, 5% CO2, 95% RH
3; Compounds; 23 nl; Use Pin Tool (Wako) to transfer DMSO control, ruxolitinib IFN-b inhibitor control [High Concentration = 80 uM final, 16-pt, 1:2 in duplicate], and library compounds in DMSO
4; Incubate; 24 hrs; Incubate at 37 C, 5% CO2, 95% RH
5; Dispense; 2.5 ul; Use BioRAPTR FRD (Beckman Coulter) to add HiBit lytic reagent
6; Incubate; 10 min; Incubate in the dark at ambient temperature for lysis
7; Detector; 5 sec; Measure luminescence with ViewLux 1430 Ultra HTS (Perkin Elmer). […]
Potency means the concentration at half of the fitted maximal effect; tags describe the fitted curve by direction and shape.

Structure (SMILES) | Potency | activity change, negative = inhibition
c1cncc(CN2CCC(n3ncc4c(N5CCOCC5)nc(-c5ccc6[nH]ccc6c5)nc43)CC2)c1 | inconclusive: 5.87 µM [inhibitor, partial curve] | –
Nc1ccccc1NC(=O)c1ccc(CNc2nccc(-c3cccnc3)n2)cc1 | active: 7.39 µM | –
CNC(=O)c1ccc(N2C(=S)N(c3ccc(C#N)c(C(F)(F)F)c3)C(=O)C2(C)C)cc1F | inactive | –
C=C1c2cccc(O)c2C(O)=C2C(=O)[C@@]3(O)C(O)=C(C(N)=O)C(=O)[C@@H](N(C)C)[C@@H]3[C@@H](O)[C@H]12 | inconclusive: 14.7 µM [inhibitor, partial curve, poor fit] | –
Cn1cnc2c(F)c(Nc3ccc(Br)cc3F)c(C(=O)NOCCO)cc21 | – | inconclusive: -36.1% [inhibitor]
CC[C@H](C)C(=O)O[C@H]1C[C@@H](C)C=C2C=C[C@H](C)[C@H](CC[C@@H]3C[C@@H](O)CC(=O)O3)[C@H]21 | inactive | –
C[C@H]1COC2=C1C(=O)C(=O)c1c2ccc2c1CCCC2(C)C | inconclusive: 41.5 µM [inhibitor, partial curve, poor fit] | –
O=C(O)c1ccc(-n2nc(-c3ccccc3O)nc2-c2ccccc2O)cc1 | inactive | –
FC(F)c1nc2ccccc2n1-c1nc(N2CCOCC2)nc(N2CCOCC2)n1 | inconclusive: 0.587 µM [inhibitor, full curve] | –
Cc1ccc(S(=O)(=O)OCC(=O)Nc2ccc(C(=O)O)c(O)c2)cc1 | inactive | –
O=P(O)(O)C(O)(Cc1cccnc1)P(=O)(O)O | inactive | –
Cn1cc(-c2[nH]c3cc(NC(=O)[C@H](N)C4CCCCC4)cc4c3c2C=NNC4=O)cn1 | inconclusive: 1.17 µM [inhibitor, full curve] | –
c1nc2nc(Nc3ccc(N4CCOCC4)cc3)nc(NC3CCCCC3)c2[nH]1 | active: 2.94 µM | –
CCc1cncnc1N1CCN(Cc2nc3ccc(C(F)(F)F)cc3[nH]2)CC1 | inactive | –
COc1ccc(Cc2nccc3cc(OC)c(OC)cc23)cc1OC | inconclusive: 0.415 µM [inhibitor, full curve] | –
CC(C)C[C@H](NC(=O)c1cc2ccccc2s1)C(=O)N1CCN(C(=O)[C@H](CO)NS(=O)(=O)c2ccc(Cl)cc2Cl)CC1 | inconclusive: 46.6 µM [inhibitor, single point] | –
COc1ccc(-c2cc3nccn3c(Nc3ncccc3C(N)=O)n2)cc1OC | inconclusive: 5.23 µM [inhibitor, full curve] | –
Cc1cc2nc3c(=O)[nH]c(=O)nc-3n(CC(O)C(O)C(O)CO)c2cc1C (stereo not given) | inactive | –
CCCCn1c(=O)n(Cc2ccccc2F)c(=O)c2[nH]c(Cc3ccc(NC(C)=O)cc3)nc21 | inconclusive: 10.4 µM [inhibitor, partial curve, poor fit] | –
C[C@H](O)[C@@H]1C(=O)N2C(C(=O)O)=C(S[C@@H]3CN[C@H](CNS(N)(=O)=O)C3)[C@@H](C)[C@@H]12 | inactive | –

Structure (SMILES) | Potency | activity change, negative = inhibition
CC(Oc1ccc(O)cc1)(P(=O)(O)O)P(=O)(O)O | inactive | –
O=c1ncn2nc(Sc3ccc(F)cc3F)ccc2c1-c1c(Cl)cccc1Cl | inactive | –
CC(C)[C@H](CO)Nc1nc(Nc2cccc(Cl)c2)c2ncn(C(C)C)c2n1 | active: 16.5 µM | –
Cc1ccc(S(=O)(=O)N[C@@H](Cc2ccccc2)C(=O)CCl)cc1 | inconclusive: 18.6 µM [inhibitor, partial curve, poor fit] | –
C[C@@H](N)c1ccc(C(=O)Nc2ccnc3[nH]ccc23)cc1 | active: 16.5 µM | –
NCC(=O)Nc1ccc(-n2nc(C(F)(F)F)cc2-c2ccc3c(ccc4ccccc43)c2)cc1 | inactive | –
Nc1ccc(C(=O)c2cc3c(ccc4ccccc43)[nH]2)cc1 | inconclusive: 33.8 µM [inhibitor, partial curve] | –
CCC(=O)O[C@]1(C(=O)SCF)[C@H](C)C[C@H]2[C@@H]3C[C@H](F)C4=CC(=O)C=C[C@]4(C)[C@@]3(F)[C@@H](O)C[C@@]21C | inactive | –
CO[C@@H]1C(N(C)C(=O)c2ccccc2)C[C@H]2O[C@]1(C)n1c3ccccc3c3c4c(c5c6ccccc6n2c5c31)C(=O)NC4=O (stereo not given in full) | inactive | –
Nc1ncnc2c1c(-c1cccc(OCc3ccccc3)c1)cn2C1CC(CN2CCCC2)C1 (stereo not given) | inconclusive: 20.8 µM [inhibitor, partial curve, poor fit] | –
C=CC(=O)Nc1cc2c(Nc3ccc(F)c(Cl)c3)ncnc2cc1OCCCN1CCOCC1 | active: 11.7 µM | –
CCc1cc(-c2n[nH]c(C)c2-c2ccc3c(c2)OCCO3)c(O)cc1O | inconclusive: 3.3 µM [inhibitor, full curve] | –
COc1ccc(CCN2CCN(CCCc3ccccc3)CC2)cc1OC | inactive | –
CC(C)(O)CCc1ccc(OCc2cc(-c3cccc(OC(F)F)c3)c3ncccc3c2)cc1 | inconclusive: 33 µM [inhibitor, partial curve] | –
CC1(C)CC(=O)c2c(C(F)(F)F)nn(-c3ccc(C(N)=O)c(NC4CCC(OC(=O)CN)CC4)c3)c2C1 (stereo not given) | inconclusive: 0.0829 µM [inhibitor, full curve] | –
COc1ccc(CCN(C)CCCOc2ccc(S(=O)(=O)c3[nH]c4ccccc4c3C(C)C)cc2)cc1OC | inconclusive: 33 µM [inhibitor, single point] | –
CCCCCN(CCC12CC3CC(CC(C3)C1)C2)C(=O)NCCCc1ccncc1 | – | inconclusive: -50.7% [inhibitor]
Cc1cnc(Nc2cccc(CN3CCOCC3)c2)nc1Nc1cccc(S(=O)(=O)NC(C)(C)C)c1 | inconclusive: 1.65 µM [inhibitor, full curve, poor fit] | –
Nc1ncnc2c1c(-c1cccc(OCc3ccccc3)c1)cn2C1CC(CN2CCC2)C1 (stereo not given) | inconclusive: 14.7 µM [inhibitor, partial curve, poor fit] | –
Clc1ccc(C2(c3ccc(-c4cn[nH]c4)cc3)CCNCC2)cc1 | inconclusive: 41.5 µM [inhibitor, single point] | –

— PubChem BioAssay (NCATS)
